Test results as given in PubChem BioAssay (NCATS).
Inconclusive means that the source gave no clear call. Such entries were picked first, then a sample of the others. For some of these results: Where the call is inconclusive, the potency comes from a doubtful curve fit. Calls of active or inactive are those of the source. The call rests on the fitted dose curve; in most records, active means well fitted curve in the direction sought with a large enough effect; inconclusive means small, poorly fitted or top-dose-only effect, or another doubt; inactive means no such curve, though single readings can be large; an effect the other way counts as inactive or inconclusive.

Tests used:
[1] = Primary qHTS for inhibitors of nuclear receptor binding SET domain protein 2 (NSD2) in an RCH-ACV wild type WT cells (2C) (AID 1645877); conditions: activity change, negative = cell killing: at 44.9 µM (top of the series) unless noted; further: nearly all actives have a fitted effect of over 70% in size
[2] = molecular target: Phospholipid hydroperoxide glutathione peroxidase GPX4 (Homo sapiens) (UniProt P36969); experiment: Primary qHTS Assay for Inhibitors of Recombinant Selenoprotein Glutathione Peroxidase 4 (GPX4) (AID 1845192); conditions: activity change, negative = inhibition: at 50 µM (top of the series) unless noted; further: nearly all actives have a fitted effect of over 65% in size; on activity change, negative = inhibition: on the % scale 0 is the no-effect control and ±100 the full control effect
Chain of UniProt P36969 (P36969 whole entry, looked up): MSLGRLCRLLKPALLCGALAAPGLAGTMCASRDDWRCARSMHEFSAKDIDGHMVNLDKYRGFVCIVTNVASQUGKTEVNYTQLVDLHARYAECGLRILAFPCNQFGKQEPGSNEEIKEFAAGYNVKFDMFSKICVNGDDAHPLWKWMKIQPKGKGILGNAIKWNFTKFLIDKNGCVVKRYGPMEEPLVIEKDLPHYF
How it was run: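 NADPH consumption, followed by fluorescence at 340/450 nm between 0 and 15 min, reports GPX4 activity via coupled glutathione reductase (100 nM). Enzyme 200 nM was pre-exposed to compound 30 min; 0.5 mM cumene hydroperoxide and 1 mM GSH served as substrates.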

[3] = Primary redox qHTS assay for identification of artifact compounds. (AID 1845223)
How it was run: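 Amplex Red (25 uM) and HRP (250 mU/mL) in HBSS, with compounds for 15 min, then 250 uM DTT for 30 min, room temperature, dark. Fluorescence 525/598 nm read; normalized to DMSO and 10 uM DA3003; Hill fit.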

SKOV3 = experiment: Primary qHTS to identify gynecologic anti-cancer compounds using libraries of approved drugs and bioactive compounds (AID 1345084); conditions: Gynecologic cancer cell panel viability, ATPlite luminescence, 48 h; series mostly up to 57.5 µM; further: nearly all actives have a fitted effect of over 55% in size; on activity change, negative = cytotoxicity: on the % scale 0 is the no-effect control and ±100 the full control effect
How it was run: (§1)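 Five-concentration response, 48 h; readout is ATP-driven luciferase luminescence.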

[4] = Primary qHTS for inhibitors of nuclear receptor binding SET domain protein 2 (NSD2) in an isogenic RCH-ACV NSD2 p.E1099K mutant (9B) (AID 1645876); conditions: activity change, negative = viability loss: at 44.9 µM (top of the series) unless noted; further: nearly all actives have a fitted effect of over 70% in size; on activity change, negative = viability loss: on the % scale 0 is the no-effect control and ±100 the full control effect
[5] = Primary fluorescence-based thiol-reactive (MSTI) qHTS assay for identification of artifact compounds. (AID 1845221);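 further: thiol-reactive compounds lower the probe fluorescence signal; nearly all actives have a fitted effect of over 65% in size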
How it was run: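 In PBS pH 7.4 with 2% DMSO, each compound met 4 uM MSTI for one hour at ambient temperature, shielded from light, before fluorescence detection.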

Tov-21-G = experiment: Primary qHTS to identify gynecologic anti-cancer compounds using libraries of approved drugs and bioactive compounds (AID 1345084); conditions: Gynecologic cancer cell panel viability, ATPlite luminescence, 48 h; series mostly up to 57.5 µM; further: nearly all actives have a fitted effect of over 55% in size; on activity change, negative = cytotoxicity: on the % scale 0 is the no-effect control and ±100 the full control effect
How it was run: as §1

[6] = molecular target: Glutathione peroxidase 1 (Homo sapiens) (UniProt P07203); experiment: Primary qHTS Assay for Inhibitors of Recombinant Selenoprotein Glutathione Peroxidase 1 (GPX1) (AID 1845191); further: nearly all actives have a fitted effect of over 65% in size
Chain of UniProt P07203 (P07203 whole entry, looked up): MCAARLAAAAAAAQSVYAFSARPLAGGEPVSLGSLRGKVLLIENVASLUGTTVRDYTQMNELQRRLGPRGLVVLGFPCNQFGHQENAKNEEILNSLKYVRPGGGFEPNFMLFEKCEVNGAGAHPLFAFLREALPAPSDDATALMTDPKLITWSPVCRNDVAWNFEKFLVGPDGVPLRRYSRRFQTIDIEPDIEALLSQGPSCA
How it was run: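 10 nM GPX1 + cpd, 30 min RT; start w/ 1 mM GSH, 0.5 mM cumene hydroperoxide, 0.5 mM NADPH, 100 nM GR, 0.01% BSA; buffer 50 mM Tris-HCl pH 7.5, 2 mM EDTA, 150 mM NaCl; Fl 340/450, 0 & 15 min.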
Potency means the concentration at half of the fitted maximal effect; tags describe the fitted curve by direction and shape.

With `COC(=O)C1=CO[C@@H](O[C@@H]2O[C@H](CO)[C@@H](O)[C@H](O)[C@H]2O)[C@@H]2[C@@H](C)[C@@H](O)C(O)[C@H]12` (stereo partly specified) the Potency [1] was “inactive”, the Potency [2] was “inactive” and the Potency [3] was “inactive”. The Potency (SKOV3) was inconclusive: 3.98 µM [rising, partial curve, poor fit].

For `CC(C)NC(=O)c1ccc(C#Cc2ccncc2)cn1`, the Potency [4] was inconclusive: 29 µM [inhibitor, single point], the Potency [1] was inconclusive: 18.3 µM [inhibitor, partial curve] and the Potency [5] was “inactive”. For the same compound, the Potency (SKOV3) was “inactive”.

For `CC(=O)C1CCC(=O)N1Cc1ccccc1` (stereo unspecified), the Potency (Tov-21-G) was “inactive”.

For `C[C@@H]1C(=O)O[C@H]2CC34[C@H]5C[C@@H](C(C)(C)C)C36[C@@H](OC(=O)[C@@H]6O)OC4(C(=O)O5)[C@]21O` (stereo partly specified), the Potency [4] was “inactive”, the Potency [1] was “inactive” and the Potency (SKOV3) was “inactive”.

With `CC(C)[C@](O)(c1ccc2cc(OC(F)F)c(OC(F)F)cc2c1)c1cn[nH]n1` the Potency [4] was inconclusive: 33.2 µM [inhibitor, single point], the Potency [1] was inconclusive: 33.2 µM [inhibitor, single point] and the Potency [2] was “inactive”. For the same compound, the Potency (SKOV3) was inconclusive: 4.47 µM [rising, single point].

For `C[C@@H]1O[C@@H](O[C@H]2[C@H](O[C@H]3CC[C@@]4(C)C(CC[C@]5(C)C4CC=C4C6CC(C)(C)CC[C@]6(C(=O)O[C@@H]6O[C@H](CO[C@@H]7O[C@H](CO)[C@@H](O[C@@H]8O[C@@H](C)[C@H](O)[C@@H](O)[C@H]8O)[C@H](O)[C@H]7O)[C@@H](O)[C@H](O)[C@H]6O)CC[C@]45C)[C@]3(C)CO)OC[C@H](O)[C@@H]2O)[C@H](O)[C@H](O)[C@H]1O` (stereo partly specified), the activity change, negative = thiol reactive [5] was inactive: 181% [at 11.5 µM], the Potency [3] was inconclusive: 0.896 µM [activator, partial curve] and the activity change, negative = cytotoxicity (SKOV3) was inactive: -11.7% [at 6.55 µM].

In the case of `COc1c2c(c(C)c3c1C(=O)OC3)OC1(C)CC(O)C34OC(OC)(CC(O)C3(C)C1C2)OC4(C)C` (stereo unspecified), the Potency [4] is reported as inconclusive: 12.6 µM [inhibitor, single point], the Potency [1] is reported as inconclusive: 14.2 µM [inhibitor, single point] and the Potency [5] is reported as inconclusive: 9.22 µM [inhibitor, partial curve]. For the same compound, the Potency [3] was inconclusive: 11.6 µM [activator, single point] and the Potency (SKOV3) was inconclusive: 3.98 µM [rising, single point].

For `CC1(C)NC2N(C1=O)c1ccccc1C2(O)CC(C(=O)O)n1cnc2ccccc2c1=O` (stereo unspecified), the Potency [4] was “inactive” and the Potency (SKOV3) was “inactive”.

With `CCOc1ccc(NC(=S)N2CCC(C(O)(c3ccccc3)c3ccccc3)CC2)cc1` the Potency [6] was inconclusive: 25.5 µM [inhibitor, single point], the Potency [2] was inconclusive: 7.18 µM [inhibitor, full curve] and the Potency (SKOV3) was inconclusive: 1 µM [cytotoxic, single point].

In the case of `C[C@@H]1CCC2C(C)(C)[C@H](O)CC[C@]2(C)[C@@]12Cc1c(O)cc3c(c1O2)CN(CCO)C3=O` (stereo partly specified), the Potency [6] is reported as “inactive” and the Potency (SKOV3) is reported as “inactive”.
